In ChEMBL document CHEMBL4888484, “Replenishing the malaria drug discovery pipeline: Screening and hit evaluation of the MMV Hit Generation Library 1 (HGL1) against asexual blood stage Plasmodium falciparum ,using a nano luciferase reporter read-out” (2022):
Screen size: about 150,000 compounds; about 540 (0.36%) showed an effect of 50% or more. The list shows a part of the results.

system: Plasmodium falciparum; assay: Primary screen in NF54 nanoGlo assay, in single point, at 2uM, 72h; a lower Z score goes with more inhibition; assay type: functional, Erythrocyte; conditions: timepoint 72 hour

Row | Structure (SMILES) | % Inhibition | Z score
1 | O=C(CC1CCOCC1)Nc1cc(C2CCCCC2)[nH]n1 | -1% | 0.13
2 | COc1cc(CN(C)Cc2ccc(C)o2)ccc1OC[C@@H](O)CN(C)C1CCCCC1 | -2% | 0.32
3 | Nc1ccnc(N[C@H]2CCOC[C@@H]2Oc2cccc(F)c2)n1 | -11% | 2.16
4 | CN1CCc2nc(C=Cc3cccc(OCc4cccc(C#N)c4)c3)[nH]c(=O)c2C1 | 1% | -0.08
5 | CCCN1CC[C@H](Nc2ccc(C(C)C)nn2)C1 | -2% | 0.44
6 | CC(C)(C)OC(=O)N1CC(n2cc(-c3ccccn3)nn2)C1 | -4% | 0.51
7 | O=C(CS(=O)(=O)Cc1ccc(F)cc1Cl)NCC1CC1 | -9% | 1.18
8 | CC(=O)N1CCN(C(=O)[C@H](C)n2c(Cc3ccccc3Cl)nc3cc(Cl)c(Cl)cc32)CC1 | -10% | 1.31
9 | COCc1nc(CO[C@H]2CCCN(C(=O)CCc3ccccc3)C2)no1 | -19% | 2.69
10 | CO[C@@](C)(CNC(=O)NC1CCCC1)c1cccc(Cl)c1 | 11% | -1.35
11 | c1nc(N2CCOCC2)cc(N2CCC(OC3CCC3)CC2)n1 | -13% | 2.2
12 | CCN1CCN(C[C@@H]2CN(Cc3nc(-c4ccccc4)no3)C[C@@H]2CO)CC1 | -14% | 1.84
13 | O=C(CN1CCC(c2ncco2)CC1)NC[C@H]1CCCO1 | 4% | -0.42
14 | N[C@H]1C[C@H](c2cc(N3CCC(Oc4cccc(Cl)c4)CC3)ncn2)C1 | -6% | 1.19
15 | COc1ccc([C@@H]2NC(=O)CN(C)C2=O)cc1 | 13% | -1.62
16 | CCCn1c(N)c(C(=O)CN(Cc2ccccc2)c2ccc(OC)cc2)c(=O)n(C)c1=O | -7% | 0.95
17 | COc1cccc(-c2ccc(N3CCCN(C(=O)CN(Cc4ccc(F)cc4)C(=O)CC(C)C)CC3)nn2)c1 | -14% | 1.76
18 | O=C(Nc1cccc(NC(=O)C(F)(F)F)n1)C(F)(F)F | -9% | 1.65
19 | Cc1cc(NC(=O)Cn2cc(-c3ccnc(N)n3)cn2)n(Cc2ccccc2)n1 | -9% | 1.57
20 | Cc1ccc2nc(-c3nc(C)cs3)[nH]c(=O)c2c1 | -20% | 2.83
21 | Cc1cc(=O)n(CC(=O)Nc2ccc(C)c(C)c2)c(N2CCCCC2)n1 | -20% | 2.09
22 | Cc1nc([C@@H]2C=CCN2)n(-c2ccc(Cl)cc2C)n1 | 0% | -0.06

Row | Structure (SMILES) | % Inhibition | Z score
23 | CC(C)CNC(=O)[C@@H]1CCCCN1C(=O)c1cc2n(n1)CCCN(Cc1ccccc1)C2=O | -1% | 0.25
24 | C[C@@H](CNCCn1cnnc1C1CC1)c1ccccc1 | -11% | 1.39
25 | CC(=O)N1CCc2cc(NS(=O)(=O)c3c(C)cc(C)cc3C)ccc21 | 6% | -1.22
26 | Cc1cc2c(cc1Cl)C1CC(C)(O2)N(CCCO)C(=O)N1 (stereo not given) | -3% | 0.47
27 | CN1CCN(CCNC(=O)c2ncccc2F)CC1(C)C | -9% | 1.53
28 | O=C(O)C[C@]1(c2ccccc2)CC(=O)N(CC2CCCCC2)C1=O | 0% | 0.07
29 | COc1ccc(O[C@@H](C)CNC(=O)c2ccncc2)cc1 | 0% | 0.01
30 | C=CCn1cc(CN[C@@H](CCn2ccnc2C)c2ccccc2)c(C)n1 | -3% | 0.61
31 | Cc1cc(CS(=O)(=O)c2ccc(F)c(F)c2)no1 | 5% | -0.92
32 | CNC(=O)c1cc[nH]c1[C@H]1CCCN(Cc2cc(C(F)(F)F)ccc2Cl)C1 | -1% | 0.11
33 | CCCCS(=O)(=O)N(C[C@H]1CCC(=O)N1)C(C)C | -8% | 1.21
34 | Cn1cc(C2C[S+]([O-])CCN2C(=O)c2cc(F)c[nH]2)cn1 (stereo not given) | -19% | 2.25
35 | COc1nc(N[C@H]2COC[C@@H]2N2CCCC2)ncc1F | -7% | 1.4
36 | Cn1nncc1C(=O)N1CCCC(C)(C)c2ccccc21 | -10% | 1.57
37 | O=C(NCc1nccs1)N1CCC[C@H](CN2CCOCC2)C1 | -9% | 0.85
38 | CCN(CCC(=O)NCC1CC1)C(=O)c1cc2n(n1)CCCN(Cc1ccc(F)cc1)C2=O | -9% | 0.87
39 | COc1ccc(N2CCN(c3nc(C(=O)NCCN(C)C)cs3)CC2)cc1 | -6% | 0.8
40 | Cc1ccc(C)c(NC(=O)c2c(Oc3ccc(F)cc3)nc(C)c(Cl)c2C)c1 | -8% | 1.01
41 | C[C@@H]1CN(Cc2cc3cc(F)ccc3n2C)CC[C@]1(C)O | -15% | 1.5
42 | COc1cccc(CNc2nc3ccncc3n(C(C)C)c2=O)c1OC | -15% | 1.47
43 | O=C1NCCOCCCN(S(=O)(=O)c2ccc3c(c2)CCC3)[C@H]2CCC[C@@H]12 | 2% | -0.29
44 | O=C(NC[C@H]1CCCO1)c1ccc(S(=O)(=O)N2CCOCC2)cc1 | 8% | -0.99

Row | Structure (SMILES) | % Inhibition | Z score
45 | Cc1cccc(N(C)CCN2CCOCC2)c1 | -17% | 1.53
46 | CCOc1ccc(S(=O)(=O)N2CCCCC2)cc1-c1nc(C(C)C)no1 | -6% | 1.17
47 | CCOc1cc(C(=O)Nc2nc(C3CC3)cs2)ccn1 | -13% | 1.81
48 | CC(C)CC(=O)C(=O)N1CCC([C@]2(Cc3ccc(F)cc3)NC(=O)N(CC3CC3)C2=O)CC1 | -4% | 0.42
49 | CCc1ccc(S(=O)(=O)N2CC[C@H](n3cc(-c4ccccc4)nn3)C2)s1 | -26% | 3.39
50 | Cc1ncn(CCNCc2c(F)cccc2F)c1C | -4% | 0.44
51 | Cn1cnnc1CCC(=O)N[C@H](c1nccn1C)C1CC1 | -9% | 1.58
52 | CCN=C(NC)Nc1cccc(OCCCOC)c1 | -4% | 0.42
53 | COc1cccc(OCCN2CC3(CCCC3)CC2=O)c1 | -7% | 1.24
54 | COc1cc(NCc2cn[nH]c2-c2cccs2)ncn1 | -6% | 0.79
55 | CCN(CC)C(=O)N1CCN(c2ncccc2-c2nc(C)no2)CC1 | -15% | 2.8
56 | Cc1nn(-c2ccccc2)c2nc(Cc3ccccc3)nc(N3CCN(C(=O)C[C@@H](C)CC(C)(C)C)CC3)c12 | -5% | 0.71
57 | O=C(N[C@H]1CCCN(C(=O)COC(F)F)C1)c1ccc(Cl)cc1 | 2% | -0.19
58 | CCOC(=O)c1cn(Cc2ccccc2Cl)c2nc(C)ccc2c1=O | 0% | -0.08
59 | COc1ccc(Cc2ncc3c(n2)CN(CCn2nc(C)cc2C)C3)cc1 | -4% | 0.57
60 | Cc1cc(-c2nc(-c3ccc(OC(C)(C)C)cn3)no2)n[nH]1 | 1% | -0.26
61 | O=S1(=O)CCc2ccccc2N1Cc1nnc2n1CCCCC2 | -9% | 1.33
62 | c1ccc2c(N3CCOCC3)nnc(N3CCOCC3)c2c1 | -9% | 1.33
63 | Cc1ccc(C(=O)NNC2=NCCC2)cc1 | -10% | 1.59
64 | CCn1nc(C2CCCC2)nc1-c1ccncc1 | 4% | -0.65
65 | COc1ccccc1CNC(=O)[C@@]1(CCO)CC12CCOCC2 | -1% | 0.1
66 | CC1CN(C(=O)CC2OCCCO2)CC(c2ccc(F)cc2)O1 (stereo not given) | -9% | 1.44

Row | Structure (SMILES) | % Inhibition | Z score
67 | C[C@@H](C(=O)NCCN1CCOC(C)(C)C1)n1cnc2c(N)ncnc21 | -6% | 1.2
68 | CCO[C@@H](C)c1nccn1Cc1nc(=O)[nH][nH]1 | -6% | 0.72
69 | CCCC(=O)N1CCC[C@H](C(=O)N2CCCC2)C1 | -11% | 1.43
70 | CCOC[C@@H](O)CNC(=O)c1cccc(C)c1Cl | -9% | 1.57
71 | COc1ccc(-n2nc(C(C)C)c(CN(C[C@H](O)c3ccccc3)C(C)C)c2Oc2ccccc2)cc1 | 0% | -0.04
72 | COc1ccc(N2C[C@@H](C(=O)N3CCCn4ncnc43)CC2=O)cc1 | 1% | -0.27
73 | CC1CCCN(C(C)CNC(=O)Nc2cccc(-c3ncn(C)n3)c2)C1 (stereo not given) | -3% | 0.65
74 | CO[C@H]1C[C@@H](O)C12CCN(C(=O)c1ccc(N)nc1)CC2 | -6% | 0.77
75 | Cc1ccc(S(=O)(=O)Nc2[nH]nnc2C(=O)Nc2ccc(F)cc2)cc1 | 4% | -0.54
76 | CC(C)N1C(=O)N[C@]2(CCN(CC3CCCC3)C2)C1=O | -6% | 0.61
77 | COc1ccc(F)c(CN2CCC[C@@]3(CCN(c4cc(C#N)ccn4)C3)C2)c1 | -12% | 2.04
78 | C=C1CC(c2noc(-c3ccc(C(F)(F)F)c(=O)[nH]3)n2)C1 | -16% | 2.03
79 | O=C(c1cnn(-c2ccc(F)cc2)n1)N1CCc2cncnc2C1 | -7% | 1.36
80 | COCc1cc(C[C@@H]2C[C@H](NS(=O)(=O)c3ccccc3)C2(C)C)no1 | 22% | -2.51
81 | c1ccc2c(CNC[C@H]3CCCO3)cccc2c1 | 2% | -0.33
82 | Cc1cc(C)nc(NC(=N)N2CCOCC2)n1 | -1% | 0.14
83 | Cc1nc(-c2ccccn2)n(CC(=O)Nc2cc(C3CC3)nn2-c2ccccc2)n1 | -1% | 0.26
84 | COc1ccc(C2C(COC(=O)c3cnn(C)c3C)CCN2C)cc1 (stereo not given) | -4% | 0.58
85 | O=C1CC(C2CCCCN2Cc2ccc(Cl)cc2F)CN1 (stereo not given) | -11% | 1.16
